From PubChem BioAssay AID1434 (Sanford-Burnham Center for Chemical Genomics, 2008)
The other results are listed elsewhere or left out. Further columns of the screen follow, without active or inactive calls. The list favours compounds with an active or inconclusive main result.

What follows are molecules tested against Runt-related transcription factor 1 (Homo sapiens) + Core-binding factor subunit beta (Homo sapiens) (UniProt Q01196+Q13951) (assay: disruptors of Runt domain/CBFb-SMMHC interaction – biochemical, FRET, Cerulean-Runt, Venus-CBFb-SMMHC, uHTS, primary screen (AID 1434;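 further: 0% = DMSO wells and 100% = wells with excess untagged CBFb-SMMHC; inhibitors lower the FRET ratio by blocking Runt binding to CBFb-SMMHC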)). Conditions: Cerulean-Runt/Venus-CBFb-SMMHC FRET ratio 530/480, 1 h; retest duplicate average; at 20 µM; stronger effect = higher value.
UniProt Q01196, sequence (Q01196 whole entry, looked up, the tested form may be a part): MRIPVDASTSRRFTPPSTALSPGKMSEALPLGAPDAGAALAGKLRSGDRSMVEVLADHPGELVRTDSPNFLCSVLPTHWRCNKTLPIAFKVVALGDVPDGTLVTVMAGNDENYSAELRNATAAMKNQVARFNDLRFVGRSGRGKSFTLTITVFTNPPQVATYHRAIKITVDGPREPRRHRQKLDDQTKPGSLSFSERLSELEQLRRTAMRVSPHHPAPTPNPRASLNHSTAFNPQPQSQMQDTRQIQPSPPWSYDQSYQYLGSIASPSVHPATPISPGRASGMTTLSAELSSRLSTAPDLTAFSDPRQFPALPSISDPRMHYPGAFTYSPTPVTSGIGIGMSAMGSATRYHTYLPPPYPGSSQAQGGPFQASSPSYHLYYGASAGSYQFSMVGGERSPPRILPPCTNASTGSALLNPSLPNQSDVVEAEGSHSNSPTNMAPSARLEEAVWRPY
UniProt Q01196, sequence (Q13951 whole entry, looked up, the tested form may be a part): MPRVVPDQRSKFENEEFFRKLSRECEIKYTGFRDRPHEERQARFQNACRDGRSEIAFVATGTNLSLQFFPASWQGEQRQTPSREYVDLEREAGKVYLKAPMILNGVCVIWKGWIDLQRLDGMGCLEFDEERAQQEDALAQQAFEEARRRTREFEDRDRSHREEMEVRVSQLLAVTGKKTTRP

Q: Which inhibition does the source give for `Cc1cc(C)c2nc3nc(C)c(C)cc3c(N)c2c1` here?
A: 70.6%

Q: `CCN1CCN(Cc2c(O)ccc3c2O/C(=C\c2ccc(C)cc2)C3=O)CC1` was tested. Which inhibition did it give?
A: 70.6%

Q: For `CC(C)Sc1nsc2nc(=O)c(/C=C3\C=Nc4ccccc43)c(N)n12`, which inhibition is on record?
A: 60.6%

Q: Which inhibition does the source give for `CNC(=O)/C(C#N)=C/c1c(N(Cc2ccccc2)Cc2ccccc2)nc2ccccn2c1=O` here?
A: 90.7%

Q: For `COC(=O)c1c(/N=C/N(C)C)sc2c1CCN(c1ncc(C(F)(F)F)cc1Cl)C2`, which inhibition is on record?
A: 61.6%

Q: For `O=c1oc2c(CN3CCCCC3)c(O)ccc2cc1-c1nc2ccccc2[nH]1`, which inhibition is on record?
A: 72.9%

Q: With `CC(C)(O)C1Cc2cc(/C=C/C(=O)O)c(O)cc2O1` (stereo not drawn) as the molecule, how does the inhibition read?
A: 63.3%

Q: `N#Cc1cc2c(=O)n3ccccc3nc2n(CCN2CCOCC2)c1=O` was tested. Which inhibition did it give?
A: 182%

Q: Which inhibition does the source give for `Cc1cccc(-n2c(N)c(C(=O)NCCN3CCOCC3)c3nc4ccccc4nc32)c1` here?
A: 72.9%

Q: Which inhibition does the source give for `CCOC(=O)C1CCN(C(=O)c2cc3c(=O)n4ccccc4nc3n2C)CC1` here?
A: 53.5%

Q: `COc1ccc(Cn2c(N)c(C#N)c3nc4ccccc4nc32)cc1` was tested. Which inhibition did it give?
A: 122%

Q: Which inhibition does the source give for `Cc1snc(SCC(=O)c2ccc([N+](=O)[O-])cc2)c1C#N` here?
A: 54.2%

Q: How did the inhibition turn out when `N#CC1=C(N)SC(N)=C(C#N)C1c1cccc(Oc2ccccc2)c1` was run?
A: 71.7%

Q: With `C/C(=N\NC(=O)CC#N)c1cc2ccc(O)cc2oc1=O` as the molecule, how does the inhibition read?
A: 70.6%

Q: Which inhibition does the source give for `CCc1cc(=O)oc2c(CN3CCCC3)c(O)c(Cl)cc12` here?
A: 164%

Q: Which inhibition does the source give for `Fc1cccc(NC(=S)NNc2c3ccccc3nc3ccccc23)c1` here?
A: 89.8%

Q: For `CCSc1ccc(-c2nn(-c3ccccc3)cc2/C=C(/C#N)C(=O)NCCCOC)cc1`, which inhibition is on record?
A: 61.6%

Q: `CC1(c2ccc(OC(F)F)cc2)NC(=O)N(/N=C/c2c(O)ccc3ccccc23)C1=O` (stereo not drawn) was tested. Which inhibition did it give?
A: 53.7%

Q: Which inhibition does the source give for `Cc1cccn2c(=O)c3cc(C(=O)NC4CCCCC4)c(=N)n(CCN4CCOCC4)c3nc12` here?
A: 161%

Q: `CCc1ccc2[nH]c3nc(C)cc(C)c3c(=O)c2c1` was tested. Which inhibition did it give?
A: 112%

Q: How did the inhibition turn out when `CC(C)COC(=O)/C(C#N)=C/c1c[nH]c2ccccc12` was run?
A: 56.3%

Q: For `COC(=O)c1ccc(C(=O)OC)c(N)c1`, which inhibition is on record?
A: 128%

Q: With `N#Cc1c(NC(=S)NC(=O)c2ccccc2)sc2c1CCN(CCc1ccccc1)C2` as the molecule, how does the inhibition read?
A: 71.5%

Q: With `Cc1cc(=O)oc(C)c1C(=O)Nc1ccc2ncccc2c1` as the molecule, how does the inhibition read?
A: 72.9%

Q: How did the inhibition turn out when `Cc1c(O)ccc2c3c(c(=O)oc12)CCC(C)C3` (stereo not drawn) was run?
A: 135%

Q: `C=CCOc1ccc(C2OC34CCCCC3C(C#N)(C#N)C2(C#N)C(=N)O4)cc1` (stereo not drawn) was tested. Which inhibition did it give?
A: 55.7%

Q: `COCCCNC(=S)NCCCNc1nc2cc3c(cc2cc1C#N)OCO3` was tested. Which inhibition did it give?
A: 180%

Q: For `Nc1cccc2nc3ccccc3cc12`, which inhibition is on record?
A: 72.9%

Q: How did the inhibition turn out when `COc1ccccc1[C@@H]1C(c2cccc(Cl)c2)=NN(c2ccccc2)[C@H]1C(=O)N1CCOC1=O` was run?
A: 60.1%

Q: With `CCOCCCn1c(=NC(=O)c2cccs2)c(C#N)cc2c(=O)n3ccccc3nc21` as the molecule, how does the inhibition read?
A: 70.6%

Q: Which inhibition does the source give for `CCOC(=O)c1c(NC(=O)C(F)(OC)C(F)(F)F)sc2c1CCN(C)C2` (stereo not drawn) here?
A: 61.9%

Q: With `FC(F)(F)c1nnc2c(Sc3ccccn3)nc3ccccc3n12` as the molecule, how does the inhibition read?
A: 62.5%

Q: How did the inhibition turn out when `CCCn1c(-c2cccs2)nc2nc3ccccc3nc21` was run?
A: 127%

Q: How did the inhibition turn out when `CCN1C2=C(C(=O)CCC2)C(c2ccc(O)c(Br)c2)C2=C1CCCC2=O` was run?
A: 116%

Q: `CC(=O)Nc1ccc(S(=O)(=O)Nc2nc3cc4c(cc3nc2Cl)OCCO4)cc1` was tested. Which inhibition did it give?
A: 75.2%

Q: With `COc1cccc(C(=O)/C=C2\Sc3ccccc3N2C)c1` as the molecule, how does the inhibition read?
A: 85.5%

Q: `CCOc1ccc(C(=O)c2cc3ccc(O)cc3oc2=O)cc1` was tested. Which inhibition did it give?
A: 137%

Q: `Cc1ccc(C2OC34CCCCCC3C(C#N)(C(=N)O4)C2(C#N)C#N)cc1` (stereo not drawn) was tested. Which inhibition did it give?
A: 112%

Q: How did the inhibition turn out when `COc1cc(/C=C(\C#N)C(=O)Nc2cccc3ncccc23)ccc1O` was run?
A: 167%

Q: `Clc1cncc(Cl)c1NNc1c2ccccc2nc2ccccc12` was tested. Which inhibition did it give?
A: 153%

Q: With `N#Cc1c(-c2ccncc2)c2c([nH]c1=O)-c1ccccc1OC2` as the molecule, how does the inhibition read?
A: 70.6%

Q: Which inhibition does the source give for `COC(=O)C1=CN(C)C=C(C(=O)OC)C1c1ccsc1` here?
A: 127%

Q: How did the inhibition turn out when `CNC(=O)/C(C#N)=C/c1c(N2CC(C)OC(C)C2)nc2ccccn2c1=O` (stereo not drawn) was run?
A: 184%

Q: For `O=C(Nc1nc2c(s1)CN(Cc1ccccc1)CC2)c1c(F)cccc1F`, which inhibition is on record?
A: 128%

Q: Which inhibition does the source give for `CCCCCn1c(N)c(C#N)c2nc3ccccc3nc21` here?
A: 72.9%

Q: `Cc1cc(O)c(-c2cc(O)c(C)cc2O)cc1O` was tested. Which inhibition did it give?
A: 67.9%

Q: With `COCCNC(=O)c1c(N)n(-c2cccc(C)c2)c2nc3ccccc3nc12` as the molecule, how does the inhibition read?
A: 108%

Q: For `N#Cc1c2c(c(NCc3cccnc3)n3c1nc1ccccc13)CCC2`, which inhibition is on record?
A: 60%

Q: For `CCOC(=O)Cc1csc(-n2sc3ccccc3c2=O)n1`, which inhibition is on record?
A: 49.7%

Q: Which inhibition does the source give for `CCN1CCc2c(C#N)c(N3CCOCC3)nc(NCc3ccccc3)c2C1` here?
A: 71.5%

Q: Which inhibition does the source give for `CCOC(=O)c1cc2ccc(OC(=O)c3ccco3)cc2oc1=O` here?
A: 71.5%

Q: How did the inhibition turn out when `COc1ccc(OC)c(S(=O)(=O)N(C(C)=O)c2ccc3oc(=O)sc3c2)c1` was run?
A: 52.7%

Q: How did the inhibition turn out when `Cc1ccc2nc3c(cc(C(=O)NCCCn4ccnc4)n3C)c(=O)n2c1` was run?
A: 102%

Q: `COCC(C)OC(=O)C(C#N)c1nc2ccccc2nc1N1CCN(Cc2ccccc2)CC1` (stereo not drawn) was tested. Which inhibition did it give?
A: 84.2%

Q: With `Cc1ccc(S(=O)(=O)c2c(N)n(Cc3ccco3)c3nc4ccccc4nc23)cc1` as the molecule, how does the inhibition read?
A: 45.7%

Q: Which inhibition does the source give for `O=CN(/C=C1\Sc2ccccc2C1=O)Cc1ccccc1` here?
A: 72.9%

Q: With `Cc1cccn2c(=O)c3cc(C#N)c(=O)n(CC4CCCO4)c3nc12` (stereo not drawn) as the molecule, how does the inhibition read?
A: 72.9%

Q: Which inhibition does the source give for `CC(C)N1CCC2(CC1)C(C#N)=C(N)NC(S)=C2C#N` here?
A: 60.3%

Q: With `COc1ccc(C2C3=C(CC(C)(C)CC3=O)N(CCN3CCOCC3)C3=C2C(=O)CC(C)(C)C3)cc1` as the molecule, how does the inhibition read?
A: 132%

Q: How did the inhibition turn out when `Cc1ccc(S(=O)(=O)NC(C(=O)Oc2ccc3c(C(F)(F)F)cc(=O)oc3c2)c2ccccc2)cc1` (stereo not drawn) was run?
A: 71.5%

Q: `O=C(O)C(=O)/C(=C\c1cccc2ccccc12)c1ccc2ccccc2n1` was tested. Which inhibition did it give?
A: 82.7%

Q: For `Cc1cccn2c(=O)c3cc(C(=O)NC(C)c4ccccc4)c(=N)n(CCCn4ccnc4)c3nc12` (stereo not drawn), which inhibition is on record?
A: 70.6%

Q: Which inhibition does the source give for `COc1cccc(C=Nc2ccccc2C(=O)Nc2nccs2)c1OC` here?
A: 70%

Q: With `c1ccc(-c2nc(N3CCCCC3)nc3ccccc23)cc1` as the molecule, how does the inhibition read?
A: 70.5%

Q: Which inhibition does the source give for `COC(=O)C1=CN(C2CC2)C=C(C(=O)OC)C1c1ccc(C(F)(F)F)cc1` here?
A: 142%

Q: With `Cn1c(NNC(=O)c2ccc(C(C)(C)C)cc2)cc(=O)n(C)c1=O` as the molecule, how does the inhibition read?
A: 81%

Q: For `C=CCn1c(=N)c(C(=O)NCCCOC)cc2c(=O)n3cccc(C)c3nc21`, which inhibition is on record?
A: 72.9%

Q: `N=c1c(S(=O)(=O)c2ccccc2)cc2c(=O)n3ccccc3nc2n1Cc1ccco1` was tested. Which inhibition did it give?
A: 72.9%
